# The campaign covered roughly 310,000 compounds. About 2,200 (0.71%) showed an effect of 50% or more. The effect is printed as a negative number. The list shows a part of the results.
# Target: human ether-à-go-go-related gene (hERG) potassium channel (human, UniProt Q12809)
# Assay: primary screen, population patch clamp on CHO cells stably expressing hERG
# Sequence of human ether-à-go-go-related gene (hERG) potassium channel (Q12809 whole entry, looked up): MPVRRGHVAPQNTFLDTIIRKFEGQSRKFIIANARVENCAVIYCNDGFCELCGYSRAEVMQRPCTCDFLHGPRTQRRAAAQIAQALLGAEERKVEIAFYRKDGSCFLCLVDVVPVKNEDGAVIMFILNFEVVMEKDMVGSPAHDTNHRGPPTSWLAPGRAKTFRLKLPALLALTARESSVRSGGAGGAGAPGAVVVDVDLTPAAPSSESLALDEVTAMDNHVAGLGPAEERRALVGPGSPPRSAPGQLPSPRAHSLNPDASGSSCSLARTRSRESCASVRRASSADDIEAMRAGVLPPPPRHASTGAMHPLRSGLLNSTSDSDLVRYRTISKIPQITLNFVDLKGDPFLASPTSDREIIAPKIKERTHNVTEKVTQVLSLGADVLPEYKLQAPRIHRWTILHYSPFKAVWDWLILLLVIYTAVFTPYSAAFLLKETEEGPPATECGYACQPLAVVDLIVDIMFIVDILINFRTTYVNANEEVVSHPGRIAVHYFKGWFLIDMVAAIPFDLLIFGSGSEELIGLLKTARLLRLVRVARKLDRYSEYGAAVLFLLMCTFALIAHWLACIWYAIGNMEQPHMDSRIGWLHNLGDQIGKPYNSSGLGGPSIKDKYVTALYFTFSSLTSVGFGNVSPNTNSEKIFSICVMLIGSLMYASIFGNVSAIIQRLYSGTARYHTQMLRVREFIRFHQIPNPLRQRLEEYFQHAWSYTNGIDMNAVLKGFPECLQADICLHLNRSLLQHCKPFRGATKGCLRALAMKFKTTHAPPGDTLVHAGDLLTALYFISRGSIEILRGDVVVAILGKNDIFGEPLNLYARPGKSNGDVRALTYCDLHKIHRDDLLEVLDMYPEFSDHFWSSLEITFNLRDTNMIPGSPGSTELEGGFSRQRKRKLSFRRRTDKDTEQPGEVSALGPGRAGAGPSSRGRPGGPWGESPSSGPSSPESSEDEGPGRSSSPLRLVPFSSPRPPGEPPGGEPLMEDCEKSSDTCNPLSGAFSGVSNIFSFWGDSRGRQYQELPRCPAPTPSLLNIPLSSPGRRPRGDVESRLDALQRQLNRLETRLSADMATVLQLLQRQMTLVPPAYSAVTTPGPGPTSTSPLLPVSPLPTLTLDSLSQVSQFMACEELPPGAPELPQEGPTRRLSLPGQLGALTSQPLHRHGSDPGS
row,Structure (SMILES),"hERG current change (%, negative = inhibition) at 1uM [%]"
1,CCN(CC)S(=O)(=O)c1cccc(C(=O)NC(Cc2c[nH]c3ccccc23)c2nnc3n2CCCCC3)c1 (stereo not shown),4.46
2,O=C(CCC1CCCNC1)c1ccccc1 (stereo not shown),12.3
3,Cc1cc(SCC(=O)OCC(=O)NCC2CCCO2)c(C)cc1Br (stereo not shown),23.8
4,CCOC(=O)N1CCN(c2nc3ccccc3nc2C(C#N)C(=O)NCCc2ccccc2)CC1 (stereo not shown),10.5
5,O=C(c1ccc(N2CCN(C(=O)c3cccc(F)c3)CC2)cc1)c1cccc(F)c1,-2.43
6,CN(C)C=O.N#Cc1ccc(Cl)cc1NC(=O)CSc1nc2nc(-c3cccs3)cc(C(F)(F)F)c2c(=O)[nH]1,7.28
7,Cl.O=C(NNC(=O)c1cccc(C(F)(F)F)c1)c1ccncc1,9.54
8,O=[N+]([O-])c1cccc(N2Cc3ccccc3C2)c1,0.423
9,CCCC(C(=O)NC1CCCC1)N(Cc1cccs1)C(=O)c1snc(C(N)=O)c1N (stereo not shown),-5.88
10,COCCN(CCOC)c1nc(S(=O)(=O)c2ccc(C)cc2)c(Cl)s1,9.8
11,O=C(NCC(=O)N1CCCC1)c1ccc(Br)o1,14.9
12,CC(C)NC(=O)CC(c1ccccc1)c1cc(Br)ccc1O (stereo not shown),-0.852
13,O=C(Oc1ccccc1C(=O)Nc1ccccc1)c1ccccc1Br,14.1
14,Cc1ccc(C(=O)Nc2ccc([N+](=O)[O-])cn2)o1,1.25
15,CCNS(=O)(=O)c1ccc(CCC(=O)NCCc2ccc(OC)cc2)cc1,3.64
16,CCc1c(C)nc(N2CCN(c3cccc(OC)c3)CC2)[nH]c1=O,9.06
17,CCC(C(=O)NCc1ccco1)n1nc(C)n2c(cc3occc32)c1=O (stereo not shown),12.9
18,O=C(CNS(=O)(=O)c1cccc(Br)c1)NCCCc1ccccc1,13.9
19,Cc1ccc(NS(=O)(=O)c2ccc(CCC(=O)N3CCCC3)cc2)cc1,15.2
20,Cc1cccc(NC(=O)c2ccc(N3C(=O)C4CCCCC4C3=O)cc2)c1C (stereo not shown),11.3
21,CCOC(=O)C1(c2ccccc2)NC(c2ccccc2C)C2C(=O)N(c3ccc4c(c3)OCO4)C(=O)C21 (stereo not shown),-4.19
22,CCn1c(=O)cc(OCC(=O)NCCCN2CCN(c3cccc(Cl)c3)CC2)c2ccccc21,-14.8

row,Structure (SMILES),"hERG current change (%, negative = inhibition) at 1uM [%]"
1,CNc1snc(C)c1C(=O)OC(C)C(=O)Nc1cccc(OC)c1 (stereo not shown),1.63
2,CN(C)S(=O)(=O)c1cccc(C(=O)NCc2ccco2)c1,15.3
3,C=CCOC(=O)C(C#N)c1nc2ccccc2nc1N1CCN(c2ccccc2OC)CC1 (stereo not shown),10.8
4,O=C(CCSc1ccccc1)Nc1ncccn1,16
5,COc1ccc(OC)c(Nc2c3c(nc4ccccc24)CCC3)c1,-14.8
6,O=C(NCCc1ccc(Cl)cc1)c1ccc(CNc2c(N3CCOCC3)c(=O)c2=O)cc1,7.76
7,Cc1cccc(N(C)c2cc(C)nc3nc(C)nn23)c1,-1.14
8,COc1ccc(-n2nc3c(c2NC(=O)C(C)Cl)CSC3)cc1 (stereo not shown),14.4
9,O=C(Nc1ccc(N2CCCC2)cc1)c1ccc(Br)cc1,19.5
10,COc1ccc(C)cc1NC(=O)CCNC(=O)Cn1cnc2ccccc2c1=O,10.3
11,Cc1ccc(CC(=O)NCCCc2ccccc2)cc1,6.87
12,CCOC(=O)c1cc2c(=O)n3cccc(C)c3nc2n(CC(C)C)c1=NC(=O)c1ccco1,-64.7
13,Cc1nn(C)c(C)c1C1C(C#N)=C(N)OC2=C1C(=O)CCC2 (stereo not shown),8.81
14,CCc1ccc(Nc2ccc(C(N)=O)cc2[N+](=O)[O-])cc1,12
15,CC1(C)CC2(CC(C)(C(=O)CSc3nc4ccccc4s3)OC2=O)C(=O)O1 (stereo not shown),6.11
16,CCCNC(=O)CN1C(=O)NC(Cc2c[nH]c3ccccc23)C1=O (stereo not shown),6.14
17,CN1c2ccccc2Oc2ccccc21.[O-][Cl+3]([O-])([O-])[O-],4.62
18,O=C(O)c1ccccc1S(=O)(=O)c1ccccc1CO,9.61
19,COc1ccc2nc(SCC(=O)NCC3CCCO3)c(C#N)cc2c1 (stereo not shown),21.4
20,CCOc1cc(C=O)cc(Cl)c1OCC(N)=O,9.88
21,COc1ccc([C@@]2(C(C)C)ON(c3ccccc3C(F)(F)F)C2=O)cc1,16

# Reference: publication PMC4336329 (PLoS ONE, 2015)
